Measured values from the supplement of paper PMC4967469.
The IC50 comes from the fitted curve, where viability falls to half of the control; where the fit passes the top or lowest dose, that dose stands as a limit. AUC sums up the same curve from the lowest dose to the 256-fold higher top dose; values near 1 show little effect. For some of these results: A top dose marked as inferred was calculated from the reported fits. For some of these results: Where an entry number is given, a second screen of the drug exists; the two often differ.

Assays:
Assay in all cases: Viability of human cancer cell lines after 72 h of drug (GDSC screen)
EX-527 = compound: NC(=O)C1CCCc2c1[nH]c1ccc(Cl)cc21 [EX-527]; settings: top dose 20 µM
Description: (§1)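 Human cancer cell lines in 384-well plates, medium with 10% serum, drug for 72 h over a 256-fold dose range (nine 2-fold or five 4-fold steps up to the top dose). Adherent lines were fixed and stained with the nucleic acid dye Syto60, suspension lines read with resazurin; signal relative to control wells, capped at 0 and 100%. One two-parameter sigmoid per drug and line, fitted in a mixed model over all curves with the slope shared within a line.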

AZD6244 = compound: Cn1cnc2c(F)c(Nc3ccc(Br)cc3Cl)c(C(=O)NOCCO)cc21 [AZD6244]; settings: top dose 4 µM; screen: GDSC drug entry 1498; top dose inferred
Description: as §1

YM201636 = compound: Nc1ccc(C(=O)Nc2cccc(-c3nc(N4CCOCC4)c4oc5ncccc5c4n3)c2)cn1 [YM201636]; settings: top dose 5.12 µM; top dose inferred
Description: as §1

AZ628 = compound: Cc1ccc(NC(=O)c2cccc(C(C)(C)C#N)c2)cc1Nc1ccc2ncn(C)c(=O)c2c1 [AZ628]; settings: top dose 4 µM; top dose inferred
Description: as §1

AS601245 = compound: N#CC(c1ccnc(NCCc2cccnc2)n1)c1nc2ccccc2s1 [AS601245]; settings: top dose 8 µM; top dose inferred
Description: as §1

Cell Line	AUC (EX-527)	IC50 (EX-527)	AUC (AZD6244)	IC50 (AZD6244)	AUC (YM201636)	IC50 (YM201636)	AUC (AZ628)	IC50 (AZ628)	AUC (AS601245)	IC50 (AS601245)
SBC-1 (small cell lung carcinoma, suspension)	0.987	> 20 µM	0.975	> 4 µM	0.882	5.07 µM	0.967	> 4 µM	0.965	> 8 µM
SCC-15 (head and neck, adherent)	0.978	> 20 µM	0.788	2.45 µM	0.943	> 5.12 µM	0.873	> 4 µM	0.895	> 8 µM
SCH (stomach, adherent)	0.988	> 20 µM	0.978	> 4 µM	0.988	> 5.12 µM	0.988	> 4 µM	0.988	> 8 µM
SF126 (glioma, adherent)	0.985	> 20 µM	0.93	> 4 µM	0.935	> 5.12 µM	0.94	> 4 µM	0.915	> 8 µM
SF268 (glioma, adherent)	0.985	> 20 µM	0.956	> 4 µM	0.914	> 5.12 µM	0.924	> 4 µM	0.849	6.73 µM
SF539 (glioma, adherent)	0.957	> 20 µM	0.915	> 4 µM	0.954	> 5.12 µM	0.933	> 4 µM	0.877	6.63 µM
SH-4 (melanoma, adherent)	0.96	> 20 µM	0.554	0.38 µM	0.812	4.95 µM	0.193	0.0172 µM	0.848	> 8 µM
SHP-77 (small cell lung carcinoma, semi-adherent)	0.987	> 20 µM	0.978	> 4 µM	0.922	> 5.12 µM	0.971	> 4 µM	0.962	> 8 µM
SIMA (neuroblastoma, adherent)	0.977	> 20 µM	0.906	> 4 µM	0.838	4.15 µM	0.824	2.79 µM	0.919	> 8 µM
SJSA-1 (bone, adherent)	0.983	> 20 µM	0.809	2.42 µM	0.97	> 5.12 µM	0.689	0.913 µM	0.881	> 8 µM
SK-ES-1 (Ewing sarcoma, semi-adherent)	0.984	> 20 µM	0.978	> 4 µM	0.764	1.97 µM	0.955	> 4 µM	0.884	> 8 µM
SK-LMS-1 (soft tissue, adherent)	0.987	> 20 µM	0.696	0.86 µM	0.889	> 5.12 µM	0.987	> 4 µM	0.853	5.8 µM
SK-MEL-1 (melanoma, suspension)	0.986	> 20 µM	0.671	0.696 µM	0.954	> 5.12 µM	0.595	0.438 µM	0.96	> 8 µM
SK-MM-2 (myeloma, suspension)	0.935	> 20 µM	0.986	> 4 µM	0.814	2.94 µM	0.982	> 4 µM	0.911	> 8 µM
SK-N-DZ (neuroblastoma, adherent)	0.981	> 20 µM	0.963	> 4 µM	0.965	> 5.12 µM	0.979	> 4 µM	0.906	> 8 µM
SK-N-FI (neuroblastoma, adherent)	0.989	> 20 µM	0.915	> 4 µM	0.986	> 5.12 µM	0.902	> 4 µM	0.983	> 8 µM
SK-PN-DW (Ewing sarcoma, adherent)	0.983	> 20 µM	0.984	> 4 µM	0.826	3.27 µM	0.936	> 4 µM	0.902	> 8 µM
SK-UT-1 (soft tissue, adherent)	0.988	> 20 µM	0.902	> 4 µM	0.881	4.56 µM	0.891	3.96 µM	0.823	4.17 µM
SLVL (B-cell lymphoma, suspension)	0.928	> 20 µM	0.928	> 4 µM	0.853	4.39 µM	0.917	> 4 µM	0.802	4.2 µM
SNB75 (glioma, adherent)	0.971	> 20 µM	0.95	> 4 µM	0.979	> 5.12 µM	0.956	> 4 µM	0.763	4.25 µM
SNU-C1 (large intestine, suspension)	0.978	> 20 µM	0.431	0.148 µM	0.954	> 5.12 µM	0.957	> 4 µM	0.98	> 8 µM
SR (lymphoid neoplasm, suspension)	0.948	> 20 µM	0.913	> 4 µM	0.826	2.7 µM	0.895	> 4 µM	0.714	1.87 µM
ST486 (Burkitt lymphoma, suspension)	0.971	> 20 µM	0.988	> 4 µM	0.607	0.608 µM	0.749	1.17 µM	0.713	1.83 µM
SU-DHL-4 (B-cell lymphoma, suspension)	0.997	> 20 µM	0.996	> 4 µM	0.856	2.43 µM	0.997	> 4 µM	0.883	4.51 µM
SU-DHL-6 (B-cell lymphoma, suspension)	0.995	> 20 µM	0.995	> 4 µM	0.706	1.02 µM	0.886	2.47 µM	0.95	> 8 µM
